# Laboratory results reported in PubChem BioAssay AID686978 (National Center for Advancing Translational Sciences (NCATS), 2013).
# Several values for one entry are separate records, joined by “and”; a condition that tells them apart may be missing. Equal entries are not always repeated. Out of some 420,000 compounds screened, about 64,000 (15%) were called active. Inconclusive means that the source gave no clear call. Such entries were picked first, then a sample of the others. Calls come from the whole dose curve; as a rule, active = well fitted inhibition curve with a large enough effect; inconclusive = small, poorly fitted or top-dose-only effect; inactive = flat fitted curve, though single readings scatter. Potencies beside an inconclusive call are fits to weak or partial responses and may not hold up.
# Test: qHTS for Inhibitors of human tyrosyl-DNA phosphodiesterase 1 (TDP1): qHTS in cells in absence of CPT; note: nearly all actives have a fitted effect of over 55% in size
# Conditions: DT40 Tdp1-/- hTDP1 cells, no CPT, ATP luminescence, 48 h; activity change, negative = growth inhibition: at 46.2 µM (top of the series)
# Method in brief: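 Chicken DT40 Tdp1-/- cells complemented with human TDP1, screened without camptothecin (DMSO vehicle only), 400 cells/well. Compounds pin-transferred, cells incubated at 37 °C for at least 48 hr. Growth read as ATP-dependent luminescence (CellTiter-Glo, 30 min at RT).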
# % is set by controls: 0 for no effect and ±100 for the full control effect; potency is the fitted concentration of half-maximal effect; tags give direction and shape of the fitted curve.
Compound,Potency,"activity change, negative = growth inhibition"
Cn1cc(CCC(=O)N2CCCC(C(=O)c3ccc(C(C)(C)C)cc3)C2)cn1 (configuration not stated),active: 20.6 µM,
Cc1ccc(CNC(=O)c2c(-c3ccccc3F)noc2C)o1,inactive,
CCc1nnc(N2C(=N)SCC2=O)s1,"inconclusive: 23.1 µM [inhibitor, single point]",
O=S(=O)(c1cccc2c(S(=O)(=O)N3CCCC3)cccc12)N1CCCC1,active: 16.4 µM,
Cn1cc(CNCCCn2ncc3ccccc32)c(-c2ccccc2F)n1,"inconclusive: 16.4 µM [inhibitor, single point]",
CCOc1cccc2cc(C(=O)NCc3ccc(C)cc3)c(=N)oc12,active: 4.11 µM,
O=C(NCc1cccc(Br)c1)C1CC(c2cc(C(F)(F)F)cc(C(F)(F)F)c2)=NO1 (configuration not stated),inactive,
O=S(=O)(Cc1ccccc1)N1CCC(c2nc(-c3cccs3)no2)CC1,inactive,
COc1ccc(/C=C/C(=O)c2ccc[nH]2)c(OC)c1OC,"inconclusive: 29.1 µM [inhibitor, single point]",
N#CC1(C#N)C(C(N)=O)C1c1ccccc1 (configuration not stated),"inconclusive: 16.4 µM [inhibitor, single point]",
COc1ccc(CCNC(=S)NCCc2ccc(OC)c(OC)c2)cc1OC,"inconclusive: 25.9 µM [inhibitor, single point] and inconclusive: 16.4 µM [inhibitor, single point]",
COc1cc(C)ccc1OCCOCCOc1c(C)cc(C)cc1Br,"inconclusive: 20.6 µM [inhibitor, single point]",
Cc1ccc(-c2noc(-c3ccc(NCC4CCCO4)c([N+](=O)[O-])c3)n2)cc1 (configuration not stated),"inconclusive: 2.59 µM [inhibitor, full curve, poor fit]",
CCCCOc1cccc(C(=O)N(Cc2ccc(Cl)cc2)C2CCS(=O)(=O)C2)c1 (configuration not stated),"inconclusive: 29.1 µM [inhibitor, partial curve, poor fit]",
COc1ccc(S(=O)(=O)N2CCN3CCCC3C2)cc1 (configuration not stated),inactive,
CCCCn1cnc2c1c(=O)[nH]c(=O)n2CCCC,"inconclusive: 29.1 µM [inhibitor, single point]",
O=C(Nc1ccc(OCC(=O)N2CCOCC2)cc1)c1ccccc1F,inactive,
COc1ccc(CCNC(=O)CSc2nnc(-c3ccc(C)cc3)c(-c3ccc(C)cc3)n2)cc1OC,active: 16.4 µM,
COC(=O)[C@]12CCCCC=C1N(Cc1ccco1)C(=O)[C@H](CC(=O)NCC13CC4CC(CC(C4)C1)C3)C2,"inconclusive: 23.1 µM [inhibitor, single point]",
COc1cc2c(cc1NC(=O)CN1C(=O)NC3(CCc4ccccc43)C1=O)oc1ccccc12 (configuration not stated),"inconclusive: 20.6 µM [inhibitor, single point]",
O=C(Nc1cccc(C(=O)O)c1)/C(=C\c1ccco1)NC(=O)c1ccc(Br)o1,inactive,
CCOC(=O)c1cc2cc(OC)ccc2n1C1CCN(C)CC1,active: 18.4 µM,
O=C1NC(=S)S/C1=C\c1cc2ccccc2nc1N1CCCCC1,active: 20.6 µM,
C=CCn1c(=O)/c(=C2/SC(C)=C(C)N2CC)s/c1=C1/C(=O)N(CC)C(=S)N1c1ccccc1,"inconclusive: 13 µM [inhibitor, partial curve, poor fit]",

Compound,Potency,"activity change, negative = growth inhibition"
CC(=O)C1=C(C)NC(SCC(N)=O)=C(C#N)C1CC(C)C (configuration not stated),"inconclusive: 25.9 µM [inhibitor, single point]",
CCSc1nnc([C@H](Cc2ccccc2)NC(=O)OC(C)(C)C)o1,inactive,
O=[N+]([O-])c1ccc(-c2nc(NCc3cccnc3)c3ccccc3n2)cc1,inactive,
COc1ccc(-c2noc(CCC(=O)NCC3CCCO3)n2)cc1 (configuration not stated),inactive,
CS(=O)(=O)n1nc(-c2ccco2)nc1N,inactive,
O=C(c1ccc(CS(=O)(=O)c2c(Cl)cccc2Cl)o1)N1CCCC1,inactive,
COc1ccc(N(CC(=O)N2c3ccccc3CC2C)S(=O)(=O)c2c(C)noc2C)cc1 (configuration not stated),"inconclusive: 29.1 µM [inhibitor, single point]",
CC(C)=CCC/C(C)=C/CNC(=O)CC1C[C@H](C(=O)N2CCCCC2)[C@@]2(C)c3[nH]c4ccccc4c3CCN2C1=O (some centres not stated),active: 13 µM,
CCc1nnc(NC(=O)Nc2ccc(Cl)cc2)s1,"inconclusive: 14.6 µM [inhibitor, partial curve, poor fit]",
COc1ccc(CNc2nc(-c3cccnc3)nn2C(=O)c2cccs2)cc1,"inconclusive: 29.1 µM [inhibitor, single point]",
CC1CCCCC1NC(=O)c1cc(S(=O)(=O)N2CCOCC2)ccc1Cl (configuration not stated),,inconclusive: -31.7% [inhibitor]
O=c1c2cc(Br)ccc2nc(-c2ccc([N+](=O)[O-])cc2)n1O,inactive,
COc1ccc(C2=Nc3ccccc3N(C(=O)c3ccc4c(c3)OCO4)C2C(=O)NCc2ccccc2)cc1 (configuration not stated),"inconclusive: 20.6 µM [inhibitor, single point]",
CCO[C@H]1OC(C(=O)NCc2nc3ccccc3[nH]2)=C[C@@H](c2cn(C(C)=O)c3ccccc23)[C@@H]1CCCO,active: 18.4 µM,
CCN1C(=NCC(C)C)N[C@@H](c2cccc(F)c2)C(C(=O)OC)=C1C,inactive,
COc1ccc(CNC(=O)CN(C)c2nn3c(=O)cc(C)nc3s2)cc1,inactive,
COc1cc(C(=O)N/N=C/c2cccc(Oc3ccccc3)c2)ccc1O,"inconclusive: 20.6 µM [inhibitor, single point]",
O=C(O)CC(CC(=O)O)c1ccsc1,inactive,
O=c1c2c(nc3c(-c4cccc5ccccc45)c[nH]n13)CCC2,"inconclusive: 20 µM [inhibitor, single point]",
O=C(Nc1ccc(CN2CCS(=O)(=O)CC2)cc1)c1ccc(F)cc1,inactive,
CCOc1ccc(C(=O)NCCS(=O)(=O)N2CCN(c3cccc(Cl)c3)CC2)cc1,inactive,
CCOC(=O)C[C@@H]1OC[C@H](Cc2ccccc2)N1S(=O)(=O)c1ccc(C)cc1,"inconclusive: 18.4 µM [inhibitor, single point]",
CCOC(=O)c1c(NC(=O)Nc2ccccc2)sc(C)c1C,"inconclusive: 18.4 µM [inhibitor, single point]",
CC(C)C(=O)N(Cc1ccc(F)cc1)Cc1nc2ccccc2c(=O)[nH]1,"inconclusive: 20.6 µM [inhibitor, partial curve]",

Compound,Potency,"activity change, negative = growth inhibition"
CC(=O)NCCn1c(SCc2cc(F)ccc2F)nc2ccccc2c1=O,"inconclusive: 18.4 µM [inhibitor, single point]",
COc1ccc2c(c1)c(C(=O)N/N=C/c1ccccc1Cl)c(C)n2C,active: 8.2 µM,
OCc1cccc(-c2csc(C(O)(c3ccccc3)C(F)(F)F)n2)c1 (configuration not stated),"inconclusive: 29.1 µM [inhibitor, single point]",
COc1ccccc1N1C(=O)CC(N2CCN(c3ccc([N+](=O)[O-])cc3)CC2)C1=O (configuration not stated),,inconclusive: -31.4% [inhibitor]
COC(=O)CN1C(=O)S/C(=C/c2ccc(N3CCCCC3)o2)C1=O,"inconclusive: 23.1 µM [inhibitor, single point]",
O=C(c1cccc(Cl)c1)N1CCC(c2nc3c(nnn3Cc3ccc(F)cc3F)c(=O)[nH]2)CC1,"inconclusive: 29.1 µM [inhibitor, single point]",
Cc1ccc(-c2nnc(Nc3ccc(Cl)cc3)c3ccccc23)cc1S(=O)(=O)NCC1CCCO1 (configuration not stated),active: 20.6 µM,
Cc1cc(C)c(C(=O)COC(=O)c2c(C)noc2C)cc1C,"inconclusive: 29.1 µM [inhibitor, single point]",
CCN1C(=O)N(c2cccc3ccccc23)C(C)=CC1(C)C,active: 23.1 µM,
COc1ccc(/C=C/c2nc3ccccc3n2Cc2ccccc2OC)cc1,active: 8.2 µM,
COc1ccc(CC(=O)N2CCN(C(=O)c3ccco3)CC2)cc1,inactive,
Cc1nc(OCc2ccccc2)c2ccccc2n1,"inconclusive: 16.4 µM [inhibitor, partial curve]",
CC(C)(C)OC(=O)NCCCCCNC(=O)c1ncn2c1c(=O)[nH]c1ccccc12,active: 20.6 µM,
COc1cc(C(=O)Nc2ccccc2OCc2cc(=O)n3cc(C)sc3n2)cc(OC)c1OC,inactive,
CC(C)(C)C(=O)CC1(O)C(=O)N(Cc2ccccc2)c2ccccc21 (configuration not stated),inactive,
Cc1coc2c(C)c3oc(=O)c(CCC(=O)NCCCN4CCOCC4)c(C)c3cc12,"inconclusive: 25.9 µM [inhibitor, single point]",
Cc1ccc(S(=O)(=O)N2CCC(C(=O)Nc3nnc(-c4ccc(F)cc4)s3)CC2)cc1,"inconclusive: 7.31 µM [inhibitor, partial curve, poor fit]",
Cc1cccc(N2CCN(C(=S)c3ccc([N+](=O)[O-])cc3)CC2)c1,"inconclusive: 10.3 µM [inhibitor, single point]",
Cc1ccc(C(=O)NC2CC(=O)N(c3ccc4c(c3)OCCO4)C2)cc1[N+](=O)[O-] (configuration not stated),"inconclusive: 29.1 µM [inhibitor, single point]",
S=C(Nc1ccccc1Cl)NC1CCCCCC1,"inconclusive: 18.4 µM [inhibitor, partial curve, poor fit]",
COc1ccc(Cl)cc1NC(=O)CN(C)C(=O)c1cn(-c2ccccc2)nc1-c1cccs1,"inconclusive: 29.1 µM [inhibitor, partial curve, poor fit]",
CCOC(=O)c1[nH]c(CO)c(C(=O)OCC)c1C,inactive,
COC(=O)/C(C(C)=O)=C(\C=C\N(C)C)N(C)C,inactive,
COc1ccc(C(=O)Nn2c(SCc3cccc([N+](=O)[O-])c3)nc3ccccc3c2=O)cc1,"inconclusive: 18.4 µM [inhibitor, single point]",
